Results on 26 compounds are retold here after article PMC4850295, “Using a Genetically Encoded Sensor to Identify Inhibitors of Toxoplasma gondii Ca^2+ Signaling” (The Journal of Biological Chemistry, 2016).

Each structure is given as a SMILES string. This is a selection; strong and weak results do not stand in their true shares.

The subject of this assay is T1, GCaMP5-expressing T. gondii.
T1 construct: whole extracellular parasites expressing GCaMP5 Ca2+ sensor
Set-up: species or system GCaMP5-expressing Toxoplasma gondii, extracellular; GCaMP5 fluorescence (cytosolic Ca2+) after 100 uM zaprinast in compound-pretreated extracellular parasites, background-subtracted, relative to zaprinast alone. Particulars: 100 uM zaprinast stimulation; 10 min pretreatment; mean of two replicates; 0.23 h. How it is done: GCaMP5-expressing parasites were suspended in Ringer's solution at 4 × 10^7 parasites/ml, and 50 μl of parasites were applied to each well of a 96-well plate (Costar, catalog no. 3631). […] Parasites were then treated with 100 μM zaprinast or 0.1% DMSO as a vehicle control and incubated at 37 °C with 5% CO2 for an additional 4 min before measuring fluorescence with excitation and emission wavelengths of 485 and 525 nm, respectively, on a SpectraMax M3 (Molecular Devices). Basal fluorescence, measured from untreated parasites, was subtracted from all values, and results were expressed as -fold change from parasites treated only with zaprinast. Z′ factors were determined from (i) parasites treated with zaprinast versus untreated parasites and (ii) parasites treated with a final concentration of 1 μM Cpd2 or a vehicle control followed by zaprinast, using the formula, Z′ = 1 − 3(σp + σn)/(|μp − μn|), where σp and σn indicate S.D. values of positive and negative controls, and μp and μn indicate the means of positive and negative controls, respectively. […] We predicted that the zaprinast response measured in GCaMP5-expressing parasites could form the basis for a phenotypic screen. Such a screen would benefit from the known importance of Ca^2+ signaling in parasite biology along with the reported success rate of cell-based phenotypic assays. We designed a screen wherein extracellular GCaMP5-expressing parasites were pretreated with compounds for 10 min before stimulation with zaprinast, and parasite fluorescence was measured 4 min later. We expected that compounds that interfered with the zaprinast response would reduce fluorescence. We calculated a Z′-factor for this screen to determine its dynamic range and suitability to high throughput screening. To do so, we compared zaprinast-treated parasites to untreated parasites or those pretreated with the PKG inhibitor Compound 2 (Cpd2) ([55]). […] We obtained the compound libraries published kinase inhibitor sets PKIS1 ([57]) and PKIS2 (unpublished), from GlaxoSmithKline and applied our phenotypic screen to the 823 ATP mimetics represented in these collections (Fig. 2B and supplemental Table S1). The compounds were screened at a single 10 μM dose with two biological replicates.
Take `O=C1NC(=O)C(c2ccccc2Cl)=C1Nc1cccc(C(=O)O)c1` [SB-390526]: the “fold change in fluorescence relative to zaprinast alone” value is 1.153.

Consider `O=C1NC(=O)C(c2ccc(Cl)cc2)=C1Nc1ccc(O)c(Cl)c1` [SB-405367], for which the “fold change in fluorescence relative to zaprinast alone” value is 1.015.

As for `COc1ccccc1Oc1nccc(-c2c(-c3ccc(F)cc3)ncn2C2CCNCC2)n1` [SB-251527], the “fold change in fluorescence relative to zaprinast alone” value amounted to 1.133.

Turning to `O=C(O)c1ccc(-c2nc(-c3ccc(F)cc3)c(-c3ccncc3)[nH]2)cc1` [SB-202620], the “fold change in fluorescence relative to zaprinast alone” value is listed as 0.9742.

On to `CS(=O)(=O)c1ccccc1-c1nc(-c2ccc(F)cc2)c(-c2ccncc2)[nH]1` [SB-213663], for which the “fold change in fluorescence relative to zaprinast alone” value was 0.2105.

For `COc1cccc(C2=C(Nc3ccc(SC)cc3)C(=O)NC2=O)c1` [SB-331032], the “fold change in fluorescence relative to zaprinast alone” value came to 0.837.

Consider `O=C1NC(=O)C(c2ccccc2)=C1Nc1ccccc1` [SKF-62604], for which the “fold change in fluorescence relative to zaprinast alone” value came to 1.098.

Take `CS(=O)(=O)c1ccc(Oc2nccc(-c3c(-c4ccc(F)cc4)ncn3C3CCNCC3)n2)cc1` [SB-254169]: the “fold change in fluorescence relative to zaprinast alone” value came to 1.195.

As for `COc1ccccc1C1=C(Nc2ccccc2)C(=O)NC1=O` [SB-376719], the “fold change in fluorescence relative to zaprinast alone” value was 1.162.

As for `O=C1NC(=O)C(c2ccc(Cl)cc2)=C1Nc1ccccc1` [SB-317661], the “fold change in fluorescence relative to zaprinast alone” value was determined as 0.7135.

For the compound `O=C1NC(=O)C(c2ccccc2)=C1Nc1ccc(Cl)c(C(=O)O)c1` [SB-390532], the “fold change in fluorescence relative to zaprinast alone” value amounted to 0.8352.

Take `CC(C)(C)c1ccc(Oc2nccc(-c3c(-c4ccc(F)cc4)ncn3C3CCNCC3)n2)cc1` [SB-278538]: the “fold change in fluorescence relative to zaprinast alone” value is listed as 0.6481.

Regarding `CSc1ccc(NC2=C(c3cccc(Cl)c3)C(=O)NC2=O)cc1` [SB-341528], the “fold change in fluorescence relative to zaprinast alone” value was found to be 1.248.

For the compound `O=C1NC(=O)C(c2ccccc2Cl)=C1Nc1ccccc1` [SB-376715], the “fold change in fluorescence relative to zaprinast alone” value was 0.9426.

For `O=C1NC(=O)C(c2ccc(Cl)cc2)=C1Nc1cccc(O)c1` [SB-333613], the “fold change in fluorescence relative to zaprinast alone” value was 0.5564.

For the compound `Fc1ccc(-c2ncn(C3CCNCC3)c2-c2ccnc(Oc3cccc(F)c3)n2)cc1` [SB-251505], the “fold change in fluorescence relative to zaprinast alone” value came out at 0.9066.

On to `Fc1ccc(-c2ncn(C3CCNCC3)c2-c2ccnc(Oc3cccc(C(F)(F)F)c3)n2)cc1` [SB-253226], for which the “fold change in fluorescence relative to zaprinast alone” value stood at 1.342.

In the case of `Fc1ccc(-c2ncn(C3CCNCC3)c2-c2ccnc(Oc3ccc(Cl)cc3)n2)cc1` [SB-278539], the “fold change in fluorescence relative to zaprinast alone” value turned out to be 1.019.

For `Cc1ccc(C)c(Oc2nccc(-c3c(-c4ccc(F)cc4)ncn3C3CCNCC3)n2)c1` [SB-284852-BT], the “fold change in fluorescence relative to zaprinast alone” value is reported as 1.077.

For the compound `COc1ccccc1C1=C(Nc2ccc(O)c(Cl)c2)C(=O)NC1=O` [SB-381904], the “fold change in fluorescence relative to zaprinast alone” value turned out to be 0.9667.

On to `O=C1NC(=O)C(c2cccc([N+](=O)[O-])c2)=C1Nc1cc(Cl)c(O)c(Cl)c1` [SB-358518], for which the “fold change in fluorescence relative to zaprinast alone” value is reported as 1.018.

`O=C1NC(=O)C(c2ccccc2)=C1Nc1cc(Cl)c(O)c(Cl)c1` [SB-390530]: the “fold change in fluorescence relative to zaprinast alone” value turned out to be 1.139.

Take `O=C1NC(=O)C(c2ccc(Cl)cc2)=C1Nc1cccc(C(=O)O)c1` [SB-360737]: the “fold change in fluorescence relative to zaprinast alone” value was 1.092.

As for `O=C1NC(=O)C(c2ccccc2Cl)=C1Nc1cc(Cl)c(O)c(Cl)c1` [SB-390523], the “fold change in fluorescence relative to zaprinast alone” value came out at 1.133.

For the compound `COc1ccc(C2=C(Nc3cccc(Cl)c3)C(=O)NC2=O)cc1` [SB-326892], the “fold change in fluorescence relative to zaprinast alone” value is 1.023.

As to `Cc1cc(C)cc(Oc2nccc(-c3c(-c4ccc(F)cc4)ncn3C3CCNCC3)n2)c1` [SB-284851-BT], the “fold change in fluorescence relative to zaprinast alone” value was 1.079.
